From PubChem BioAssay AID1768 (National Center for Advancing Translational Sciences (NCATS), 2009)
The whole screen tested about 270,000 compounds, of which about 620 (0.23%) were called active. Inconclusive results, whose numbers are uncertain, are shown with a selection of clear calls. The call rests on the fitted dose curve; in most records, active means well fitted inhibition curve with a large enough effect in the polarisation, with a control signal flat (not every such curve was filed as active); inconclusive means small, poorly fitted or top-dose-only effect, or effect the other way, or a change in a side signal; inactive means no such curve, though single readings can be large or run the other way; the % refers to the polarisation. Potencies of inconclusive entries are doubtful fits and often do not repeat. A note “side channel” means that the fit belongs to a control or component signal, not to the main read-out.
Potency means the concentration at half of the fitted maximal effect; tags describe the fitted curve by direction and shape or compound fluorescence and quenching.
Wherever FP activity change, negative = inhibition is given: % of control where 0% means no effect.

These compounds were tested against Menin (Homo sapiens) (UniProt O00255) (assay: qHTS Assay for Inhibitors Targeting the Menin-MLL Interaction in MLL Related Leukemias: Competition With Texas Red Labeled MLL-derived Mutant Peptide). Conditions: fluorescence polarization; FP activity change, negative = inhibition: at 61.6 µM (top of the series).
UniProt O00255, sequence (O00255 whole entry, looked up): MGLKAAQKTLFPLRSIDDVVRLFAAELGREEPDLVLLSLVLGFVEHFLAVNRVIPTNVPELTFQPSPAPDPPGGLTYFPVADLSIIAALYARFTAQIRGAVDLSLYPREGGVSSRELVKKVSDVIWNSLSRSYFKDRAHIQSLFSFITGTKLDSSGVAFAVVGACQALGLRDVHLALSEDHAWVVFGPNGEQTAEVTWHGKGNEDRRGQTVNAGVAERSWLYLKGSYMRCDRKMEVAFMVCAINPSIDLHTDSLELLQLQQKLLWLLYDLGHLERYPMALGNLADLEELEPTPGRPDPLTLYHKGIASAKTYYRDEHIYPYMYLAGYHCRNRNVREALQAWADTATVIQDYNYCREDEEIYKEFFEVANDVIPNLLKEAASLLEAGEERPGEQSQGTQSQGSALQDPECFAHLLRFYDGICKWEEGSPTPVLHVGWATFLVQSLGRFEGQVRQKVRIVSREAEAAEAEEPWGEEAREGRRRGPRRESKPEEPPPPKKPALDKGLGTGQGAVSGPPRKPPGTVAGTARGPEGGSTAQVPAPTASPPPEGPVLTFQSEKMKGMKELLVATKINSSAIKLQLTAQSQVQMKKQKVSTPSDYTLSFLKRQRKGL
`COc1ccc(CN2CCCC(N3CCc4ccccc4C3)C2)c(O)c1` (configuration not stated) was tested, and the “FP activity change, negative = inhibition” value was inactive: -18.7%.
`Oc1ccc(-c2cc(-c3ccc(O)cc3)nc(-c3ccccc3)n2)cc1` was tested, and the Potency was inconclusive: 2.51 µM [quencher, side channel, full curve].
For `CCOC(=O)c1n[nH]n2c1nc(=S)c1ccccc12`, the Potency was inconclusive: 25.1 µM [quencher, side channel, single point].
For `O=c1cc(-c2cccc(F)c2)[nH]c2ccc(Cl)cc12`, the Potency was inconclusive: 10 µM [inhibitor, full curve, poor fit].
In the case of `O=S(=O)(Nc1nc2ccccc2nc1Cl)c1ccc2ccccc2c1`, the Potency is reported as inconclusive: 39.8 µM [quencher, single point].
For `CC1(C)C(C=C(Cl)Cl)C1C(=O)N1CCN(Cc2ccccc2)CC1` (configuration not stated), the Potency was inconclusive: 11.2 µM [fluorescent, side channel, partial curve].
For `C=CCc1ccccc1OCC(O)CN1CCN(Cc2ccc3c(c2)OCO3)CC1` (configuration not stated), the Potency was inconclusive: 20 µM [fluorescent, side channel, partial curve].
For `O=C(COc1ccc(-c2ccccc2)cc1)N/N=C/c1cc(O)ccc1Br`, the Potency was inconclusive: 31.6 µM [inhibitor, single point].
`COc1cccc(C2=Nn3c(nnc3-c3cc(OC)cc(OC)c3)SC2)c1` was tested, and the “FP activity change, negative = inhibition” value was inactive: 2.47%.
With `CC[n+]1c(/C=C/C=C/N(C(C)=O)c2ccccc2)sc2ccccc21` the Potency was inconclusive: 25.1 µM [fluorescent, side channel, partial curve].
With `O=C(Nc1nnc(-c2ccccc2)s1)c1ccccc1O` the Potency was inconclusive: 8.91 µM [quencher, side channel, partial curve].
`COc1cc(C(c2c(C)[nH][nH]c2=O)c2c(C)[nH][nH]c2=O)ccc1OCc1ccc([N+](=O)[O-])cc1` was tested, and the Potency was inconclusive: 25.1 µM [quencher, side channel, partial curve].
`COc1ccc(N2CCN(c3ncnc4c3[nH]c3ccccc34)CC2)cc1` was tested, and the Potency was inconclusive: 31.6 µM [quencher, side channel, single point].
`CN(C)c1ccc(NC(=O)CSc2nnc(-c3ccco3)c(-c3ccco3)n2)cc1` was tested, and the Potency was inconclusive: 35.5 µM [quencher, side channel, single point].
With `O=C(Cc1cccs1)N/N=C/C(Cl)=C/c1ccccc1` the Potency was inconclusive: 25.1 µM [fluorescent, side channel, partial curve].
For `Cc1ccc(NC(=O)Cn2cc(C(=O)C3CC3)c3ccccc32)c(C)c1`, the Potency was inconclusive: 39.8 µM [fluorescent, single point].
With `Nc1ccc2oc(-c3cccc4ccccc34)nc2c1` the Potency was inconclusive: 28.2 µM [quencher, side channel, partial curve].
`O=C(Nc1nnc(-c2cccc(F)c2)s1)Nc1ccccc1F` was tested, and the Potency was inconclusive: 25.1 µM [inhibitor, single point].
`O=C(Nc1ccccc1O)c1cc(S(=O)(=O)N2CCOCC2)c(Cl)cc1Cl` was tested, and the “FP activity change, negative = inhibition” value was inactive: 2.06%.
`COc1ccc(NC(=O)c2cc3c(COC(C)=O)cnc(C)c3oc2=Nc2cccc(C(=O)O)c2)c(OC)c1` was tested, and the Potency was inconclusive: 6.31 µM [quencher, side channel, partial curve].
In the case of `O=C(N/N=C/c1ccccn1)c1cc(Br)ccc1O`, the Potency is reported as inconclusive: 11.2 µM [quencher, side channel, partial curve].
In the case of `Cc1cccc(C2C3=C(Nc4[nH]n(-c5ccccc5)c(=O)c42)c2ccccc2C3=O)c1` (configuration not stated), the Potency is reported as inconclusive: 28.2 µM [quencher, side channel, partial curve].
With `COc1ccc(NS(=O)(=O)c2ccc(NC(=S)NC(=O)/C=C/c3ccccc3)cc2)nn1` the Potency was inconclusive: 35.5 µM [quencher, side channel, single point].
With `COc1ccc(OC)c(C2Nc3c(Cl)ccc(C(=O)O)c3C3C=CCC32)c1` (configuration not stated) the Potency was inconclusive: 11.2 µM [quencher, side channel, partial curve].
`CCN(CC)c1ccc(C(=S)NC2CCCCC2)cc1` was tested, and the Potency was inconclusive: 14.1 µM [quencher, side channel, partial curve].
With `CC(=N\Nc1ccc(Cl)cc1)/C(=N/O)C(=O)Nc1ccccc1` the Potency was inconclusive: 22.4 µM [quencher, side channel, single point].
For `COCCOC(=O)C1=C(C)Nc2cc(=O)[nH]c(=O)n2C1c1cccc([N+](=O)[O-])c1` (configuration not stated), the Potency was inconclusive: 25.1 µM [quencher, side channel, single point].
With `C=CCSc1n[nH]c2nc3c(c(=O)n12)C1(CCCC1)Cc1ccccc1-3` the Potency was inconclusive: 17.8 µM [quencher, side channel, single point].
With `CCN=C1S/C(=C/c2ccc(-c3ccc(F)cc3)o2)C(=O)N1CC` the Potency was inconclusive: 35.5 µM [inhibitor, partial curve, poor fit].
For `CN(C)c1ccc(-c2nc3cc(N)ccc3o2)cc1`, the Potency was inconclusive: 17.8 µM [quencher, side channel, partial curve].
`Cc1ccc2nc(SC(C)C(=O)Nc3cccc([N+](=O)[O-])c3)[nH]c2c1` (configuration not stated) was tested, and the Potency was inconclusive: 3.55 µM [quencher, side channel, full curve].
With `C=CC1=C(C)C2=NC1=CC1=NC(=CC3=NC(=CC4=NC(=C2)C(C)=C4CCC(=O)O)C(CCC(=O)O)=C3C)C(C=C)=C1C.[Zn]` the Potency was inconclusive: 14.1 µM [fluorescent, partial curve].
`Cn1c(=O)c(-c2ccccc2)nc2cnc(Nc3ccccc3)nc21` was tested, and the Potency was inconclusive: 39.8 µM [inhibitor, single point].
For `CCOC(=O)N1CCN(c2nc(C)cc(C(F)(F)F)n2)CC1`, the Potency was inconclusive: 14.1 µM [inhibitor, partial curve].
In the case of `COc1ccc(-c2csc(Cc3nc(O)cs3)n2)cc1`, the Potency is reported as inconclusive: 22.4 µM [quencher, side channel, partial curve].
In the case of `O=C(CCl)c1ccc(Cc2ncc(C(F)(F)F)cc2Cl)s1`, the “FP activity change, negative = inhibition” value is reported as inactive: -22%.
For `CN(C)c1ccc(/C=C2/C(=O)N(c3ccc([N+](=O)[O-])cc3)N=C2N2CCOCC2)cc1`, the Potency was inconclusive: 25.1 µM [quencher, side channel, partial curve].
`COc1ccc(NC(=O)/C(C#N)=C\c2cc(OC)c(OCc3ccc(C(=O)O)cc3)cc2Br)cc1` was tested, and the Potency was inconclusive: 14.1 µM [quencher, side channel, partial curve].
`CC1CC2(C)Oc3ccccc3C3OCC1(COC(=O)Nc1ccccc1)C(C)C32` (configuration not stated) was tested, and the “FP activity change, negative = inhibition” value was inactive: -1.69% [at 24.8 µM].
For `Cc1ccc(S(=O)(=O)N2CCN(CC(=O)Nc3ccc([N+](=O)[O-])cc3)CC2)cc1C`, the “FP activity change, negative = inhibition” value was inactive: 11.5%.
`CCc1cc2c(NCCN3CCCCC3)ncnc2s1` was tested, and the Potency was inconclusive: 31.6 µM [inhibitor, single point].
For `CC(OC(=O)c1ccccc1)C(=O)NCCC1=CCCCC1` (configuration not stated), the Potency was inconclusive: 35.5 µM [fluorescent, side channel, single point].
In the case of `O=C(CSc1nc2ccccc2[nH]1)c1c[nH]c2ccccc12`, the Potency is reported as inconclusive: 39.8 µM [inhibitor, single point].
With `CC1(C)CC(C(CCN(Cc2ccccc2)C(=O)c2ccco2)c2ccc(F)cc2)CCO1` (configuration not stated) the Potency was inconclusive: 6.31 µM [fluorescent, side channel, partial curve].
`CS(=O)(=O)NCCOc1ccc(S(=O)(=O)NCCOc2ccccc2)cc1` was tested, and the Potency was inconclusive: 31.6 µM [fluorescent, side channel, single point].
For `Cc1ccc(/C=N/NC(=O)c2cccc3ccccc23)o1`, the Potency was inconclusive: 28.2 µM [inhibitor, partial curve].
With `CCCCNC(=O)CC1N=C2c3ccccc3N=C(SCC(=O)Nc3cccc(OC)c3)N2C1=O` (configuration not stated) the “FP activity change, negative = inhibition” value was inactive: -4.78%.
In the case of `Cc1c(C=O)c2ccccc2n1CCOc1ccccc1F`, the Potency is reported as inconclusive: 39.8 µM [fluorescent, side channel, single point].
In the case of `CC(C)NC(=O)c1ccccc1NS(=O)(=O)c1ccc(Br)s1`, the Potency is reported as inconclusive: 35.5 µM [quencher, side channel, single point].
`COc1ccc(C(=O)C(/C=N/O)=N/Nc2ccc(F)cc2)cc1` was tested, and the Potency was inconclusive: 31.6 µM [quencher, side channel, single point].
For `O=C(COc1ccccc1)NC(=S)Nc1cccc(NC(=O)c2ccccc2Cl)c1`, the Potency was inconclusive: 35.5 µM [inhibitor, single point].
`Cc1ccc(SC[C@H](Cc2ccccc2)N2CC[C@@H](NC(=O)OCc3ccccc3)CCC2=O)cc1` was tested, and the Potency was inconclusive: 17.8 µM [inhibitor, partial curve].
For `Cc1ccccc1NC(=O)Nc1ccc(C(F)(F)F)cc1`, the Potency was inconclusive: 15.8 µM [quencher, side channel, partial curve].
`O=C1c2cc(F)ccc2-n2c1nc1ccccc1c2=O` was tested, and the Potency was inconclusive: 12.6 µM [quencher, side channel, partial curve].
In the case of `C=CCOc1ccc2cccc(/C=N/NC(=O)c3cc4cc([N+](=O)[O-])ccc4s3)c2c1`, the “FP activity change, negative = inhibition” value is reported as inactive: 24.8%.
For `C#CCSc1nnc(-c2sc3ccccc3c2Cl)o1`, the Potency was inconclusive: 39.8 µM [inhibitor, single point].
With `CCCCc1nc2cc(C(=O)N3CCCCC3CC(=O)OCC)ccc2o1` (configuration not stated) the Potency was inconclusive: 14.1 µM [fluorescent, side channel, partial curve].
